Hit rate of the full screen: of about 44,000 compounds, about 340 (0.77%) were called active. Roughly 5% stayed inconclusive and do not appear here. The call rests on the fitted dose curve; in most records, active means well fitted inhibition curve with a large enough effect; inconclusive means small, poorly fitted or top-dose-only effect; inactive means flat fitted curve, though single readings scatter. The list shows a part of the results.
Potency means the concentration at half of the fitted maximal effect.

A short description of the experiment: Acumen qHTS Assay for Inhibitors of the mTORC1 Signaling Pathway in MEF (Tsc2-/-, p53-/-) Cells: Sytravon. Further: nearly all actives have a fitted effect of over 50% in size.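 On activity change, negative = inhibition: plate controls were DMSO for no effect and rapamycin for full effect.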 Particulars: phospho-rpS6 immunofluorescence/PI, 24 h; series mostly up to 38.3 µM; activity change, negative = inhibition: at the top concentration. In a few lines: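 Tsc2-/-, p53-/- MEFs (empty-vector stable line) in DMEM + 10% FBS were treated with compounds 24 h at 37 degree Celsius, fixed, and immunostained for phospho-rpS6 (Alexa-488) with propidium iodide counterstain. Laser-scanning cytometry gave % positive cells, normalized against 7.5 nM rapamycin and DMSO.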
On the technique in general: Quantitative high-throughput screening tests each substance at several concentrations.
In the case of `COc1ccc(Cn2c(C(=O)O)c(CNCc3ccco3)c3ccc(C)cc32)cc1`, the “activity change, negative = inhibition” value is inactive: -18.5%.
On to `CCOc1ccccc1CNC(=O)c1cnn(-c2ccc(C)cc2)c1-n1cccc1`, for which the “activity change, negative = inhibition” value is inactive: 0.277%.
Turning to `COCCNC(=O)CSc1c(C)cnc2c1c(=O)n(C)c(=O)n2C`, the “activity change, negative = inhibition” value is inactive: 2.4%.
The same measure, in the same setting: the figure for `Cc1ccc(NC(=O)Cn2cnc3c(oc4ccccc43)c2=O)cc1Cl` is inactive: 7.59%; for `COc1ccc(NC(=O)CCCOc2cc(=O)n(C)c3ccccc23)c(OC)c1` it is inactive: -0.396%; for `Cn1c(NCc2cccc(Cl)c2)nc2ccccc21` it is inactive: -3.63%.
In the case of `CCCn1c2ccccc2c2cnn(CC(=O)NCCc3ccc(S(N)(=O)=O)cc3)c(=O)c21`, the “activity change, negative = inhibition” value was inactive: -5.26%.
On to `COc1ccccc1C(=O)Nc1nnc(SCc2cc(=O)c3ccccc3[nH]2)s1`, for which the “activity change, negative = inhibition” value is inactive: 3.34%.
Same read-out and setting: the figure for `C=Cc1ccc(CN2C(=O)N(c3ccc(C)c(C)c3)S(=O)(=O)c3ccccc32)cc1` is inactive: -0.563%.
In the case of `CCOc1ccc(NC(=O)c2cc3cc4ccc(C)cc4nc3o2)cc1`, the “activity change, negative = inhibition” value is inactive: -0.108%.
On the same count and under the same terms, the same measure for `CCN(C(=O)c1ccc(C(=O)N(CC)c2ccccc2C)cc1)c1ccccc1C`: inactive: -1.37%; for `Brc1cccc(-c2nnn3c2nc(NC2CCCCC2)c2ccccc23)c1`: inactive: -25.3%; for `Cc1ccc(-n2c(=O)c3ccc(C(=O)NCc4ccco4)cc3n(Cc3ccccc3Cl)c2=O)cc1`: inactive: 9.31%.
Consider `CC1CCCCN1CCNC(=O)c1ccc(Cn2c(SCc3ccccc3)nc3cccnc32)cc1` (stereo not drawn), for which the “activity change, negative = inhibition” value is inactive: -10.7%.
On the same count and under the same terms, the same measure for `Cc1nn(-c2ccc(N3CCOCC3)nn2)c(C)c1CCC(=O)NCc1ccc(Cl)cc1`: inactive: -6.22%.
For `CCS(=O)(=O)c1ncc(Cl)c(C(=O)Nc2ccc(S(=O)(=O)N(C)c3ccccc3)cc2)n1`, the Potency is active: 0.414 µM.
On to `Cc1cccc(C)c1Nc1sc(C(=O)c2ccccc2)c(N)c1S(=O)(=O)c1ccccc1`, for which the “activity change, negative = inhibition” value is inactive: -10.7%.
On the same count and under the same terms, the figure for `COc1ccc2nc3sc(C(=O)NCCc4ccc(Cl)cc4)cc3cc2c1` is inactive: 6.81%; for `Cc1cc(O)c(C(c2ccccc2)N2CCC(C)CC2)c(=O)n1Cc1ccco1` (stereo not drawn) it is inactive: -4.63%.
As to `CCN(C(=O)c1sc2nc3n(c(=O)c2c1C)CCCC3)c1ccccc1F`, the “activity change, negative = inhibition” value is inactive: 7.55%.
For `CC(=O)c1ccc(NC(=O)CSc2nnc3ccc(-c4ccc(F)cc4)nn23)cc1`, the “activity change, negative = inhibition” value is inactive: -11.6%.
For the compound `Cc1ccc(CCNC(=O)c2cc(-c3ccccc3)n[nH]2)cc1`, the “activity change, negative = inhibition” value was inactive: -13%.
Take `COc1ccc(CNC(=O)CCc2c(C)nn(-c3ccc(N4CCOCC4)nn3)c2C)c(OC)c1`: the “activity change, negative = inhibition” value was inactive: -6.38%.
The same measure, in the same setting: the same measure for `Cc1cn2c(=O)cc(COc3ccc(NC(=O)c4ccc(C(C)(C)C)cc4)cc3)nc2s1`: inactive: 1.38%; for `CCC1=C(c2ccc(C)cc2)S(=O)(=O)N=C1N1CCC(C(=O)Nc2ccccc2C(=O)OC)CC1`: inactive: -0.726%; for `Cc1cccc(NC(=O)C2CCCN2S(=O)(=O)c2cccc3nsnc23)c1C` (stereo not drawn): inactive: -5.95%.
Still for that read-out and setting: the figure for `CCOC(=O)c1ccc(NC(=O)CN2C(=O)C(C)(C)c3ccccc32)cc1` is inactive: 0.508%; for `CCCC12CN3CC(CCC)(CN(C1)C3c1ccc(OCc3ccccc3)cc1)C2=O` (stereo not drawn) it is inactive: -6.25%; for `Cc1cccc(C)c1NC(=O)CCSc1nc(-c2ccc3c(c2)OCO3)cc(C(F)(F)F)n1` it is inactive: 4.13%.
Consider `Fc1ccccc1C(NCCc1ccc(Cl)cc1)c1nnc(-c2ccccc2)o1` (stereo not drawn), for which the “activity change, negative = inhibition” value is inactive: -24.6%.
For the compound `COc1ccccc1NC(=O)CN(C)S(=O)(=O)c1cccc2cccnc12`, the “activity change, negative = inhibition” value is inactive: -11.1%.
Regarding `Cc1ccc(Nc2ccc(N3CCN(C(=O)c4cccc([N+](=O)[O-])c4)CC3)nn2)cc1`, the “activity change, negative = inhibition” value was inactive: 1.93%.
For `Cc1cccc(NC(=O)c2cccc(N3CCCS3(=O)=O)c2)c1`, the “activity change, negative = inhibition” value is inactive: 0%.
In the case of `Cc1ccccc1NC(=O)Cn1c(=O)n(CCC(=O)N2CCc3ccccc3C2)c(=O)c2ccccc21`, the “activity change, negative = inhibition” value was inactive: -3.22%.
The same measure, in the same setting: the figure for `Cc1ccc(CNC(=O)CN2Cc3ccccc3C2=O)cc1` is inactive: -1.67%; for `COc1ccc(NS(=O)(=O)c2cc(-c3onc(C)c3C)ccc2C)c(OC)c1` it is inactive: -17.8%; for `CCC1CN(C(=O)N2CCC(C(=O)NCCCc3ccccc3)CC2)c2cc(C)ccc2O1` (stereo not drawn) it is inactive: 9.67%.
Consider `CCCc1cnc2c(c1SCC(=O)Nc1ccc([N+](=O)[O-])cc1)c(=O)n(C)c(=O)n2C`, for which the “activity change, negative = inhibition” value was inactive: 0.358%.
On to `Cc1ccc(Cl)cc1NC(=O)c1sc2nc(C)c(C)c(C)c2c1N`, for which the “activity change, negative = inhibition” value is inactive: -7.84%.
With `CCOC(=O)c1ccccc1NC(=O)N(Cc1ccc(CC)cc1)Cc1cn[nH]c1-c1ccc(OC)cc1`, the “activity change, negative = inhibition” value was inactive: -24.9%.
With `Cc1ccc(C2CC(=O)n3nc(-c4ccc(F)cc4)nc3S2)cc1` (stereo not drawn), the “activity change, negative = inhibition” value was inactive: -0.82%.
As to `COc1ccc(-n2nc(C(=O)NCCc3ccc(Cl)cc3)c3c4ccccc4n(C)c3c2=O)cc1`, the “activity change, negative = inhibition” value was inactive: -4.75%.
Regarding `Cc1ccc(NC(=O)Cn2c(=O)n(CCC(=O)N3CCc4ccccc4C3)c(=O)c3ccccc32)c(C)c1`, the “activity change, negative = inhibition” value is inactive: -11.2%.
Regarding `COc1ccc(C2c3c(-c4ccccc4)n[nH]c3C(=O)N2c2ccc(C(=O)O)cc2)c(OC)c1` (stereo not drawn), the “activity change, negative = inhibition” value is inactive: 0.0987%.
In the case of `COc1cc(NC(=O)Cn2c(-c3ccccc3)cc(C(C)=O)c2C)cc(OC)c1`, the “activity change, negative = inhibition” value is inactive: 0.303%.
As for `CN(Cc1ccccc1)C(=O)CSc1c2c(nc3ccc(Cl)cc13)CCCC2`, the Potency was active: 13.1 µM.
Turning to `Cc1ccc(-c2c(CN3CCN(c4cccc(C)c4C)CC3)csc2C)cc1`, the “activity change, negative = inhibition” value is inactive: -4.73%.
For the compound `CC(C)NC(=O)CCSc1nc(-c2ccc3c(c2)OCO3)cc(C(F)(F)F)n1`, the “activity change, negative = inhibition” value is inactive: -7.23%.

Values taken from PubChem BioAssay AID493208 (National Center for Advancing Translational Sciences (NCATS), 2011).
